# The list shows a part of the results. The data describe in vitro nicking of single-stranded DNA by Rep domains (1 h at 37 °C, 3 µM enzyme); the outer parts of the 90-letter strands are left off. Values are log2 of uncut reads against the no-enzyme pool; more negative means more cut, near 0 not cut, and no call is made. Because reads are shares of a total, they shift together; where an enzyme cuts many sequences, the uncut ones exceed 0.
# Columns and labels:
# Test in all cases: uncleaved DNA left, log2 of reads against the no-enzyme library (log2 ratio); higher = less cleavage (more negative = more Rep cleavage of the k-mer); sequences stand for … in CTCGTCCG…ACCGGAGA
# [1] = test system: T1, Rep nickase domain of Muscovy duck circovirus
# T1 sequence (residues 1-111 of Rep, tag left off): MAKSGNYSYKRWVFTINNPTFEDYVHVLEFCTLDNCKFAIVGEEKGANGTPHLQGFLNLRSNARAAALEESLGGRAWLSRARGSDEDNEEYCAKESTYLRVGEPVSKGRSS
# Experimental: (§1)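 A pool of 90-nt single-stranded DNAs with seven random bases just before the constant AC of the nick site (name = the seven bases) was cut by 3 µM recombinant His6-SUMO-tagged Rep nickase domain (300 nM DNA, 50 mM HEPES pH 8.0, 50 mM NaCl, 1 mM MnCl2, 1 h, 37 °C, three replicates). Uncut DNA was amplified and sequenced.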
# [2] = test system: T2, Rep nickase domain of banana bunchy top virus
# T2 sequence (residues 1-94 of Rep, tag left off): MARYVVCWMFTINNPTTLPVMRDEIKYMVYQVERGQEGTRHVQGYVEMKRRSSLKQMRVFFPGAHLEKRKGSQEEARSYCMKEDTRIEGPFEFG
# Experimental: as §1
# [3] = test system: T3, Rep nickase domain of cabbage leaf curl virus
# T3 sequence (residues 1-116 of Rep, tag left off): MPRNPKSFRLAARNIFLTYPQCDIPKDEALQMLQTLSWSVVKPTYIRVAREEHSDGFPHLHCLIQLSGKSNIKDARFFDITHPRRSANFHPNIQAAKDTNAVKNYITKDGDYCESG
# Experimental: as §1
# [4] = test system: T4, Rep nickase domain of chickpea chlorotic dwarf virus
# T4 sequence (residues 1-124 of Rep, tag left off): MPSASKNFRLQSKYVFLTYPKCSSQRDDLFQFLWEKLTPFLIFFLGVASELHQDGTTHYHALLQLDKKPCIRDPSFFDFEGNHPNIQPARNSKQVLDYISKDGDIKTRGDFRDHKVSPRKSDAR
# Experimental: as §1
# [5] = test system: T5, Rep nickase domain of faba bean necrotic yellows virus
# T5 sequence (residues 1-98 of Rep, tag left off): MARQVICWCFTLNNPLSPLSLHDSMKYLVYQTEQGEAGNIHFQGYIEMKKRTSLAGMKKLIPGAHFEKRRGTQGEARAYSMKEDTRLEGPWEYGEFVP
# Experimental: as §1
# [6] = test system: T6, Rep nickase domain of maize striate mosaic virus
# T6 sequence (residues 1-117 of Rep, tag left off): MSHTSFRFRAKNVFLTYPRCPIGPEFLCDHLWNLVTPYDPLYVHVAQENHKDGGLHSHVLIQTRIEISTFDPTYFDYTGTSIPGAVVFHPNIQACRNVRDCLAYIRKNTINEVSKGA
# Experimental: as §1
# [7] = test system: T7, Rep nickase domain of porcine circovirus 2
# T7 sequence (residues 2-116 of Rep, tag left off): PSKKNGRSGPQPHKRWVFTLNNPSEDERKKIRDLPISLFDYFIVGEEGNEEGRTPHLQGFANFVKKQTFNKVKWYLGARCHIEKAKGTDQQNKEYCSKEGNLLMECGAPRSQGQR
# Experimental: as §1
# [8] = test system: T8, Rep nickase domain of tomato golden mosaic virus
# T8 sequence (residues 1-124 of Rep, tag left off): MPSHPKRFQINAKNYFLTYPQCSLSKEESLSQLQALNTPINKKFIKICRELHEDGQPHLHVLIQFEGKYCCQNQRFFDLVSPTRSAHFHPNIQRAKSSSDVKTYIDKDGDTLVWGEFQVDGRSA
# Experimental: as §1
# [9] = test system: T9, Rep nickase domain of tomato yellow leaf curl virus
# T9 sequence (residues 1-136 of Rep, tag left off): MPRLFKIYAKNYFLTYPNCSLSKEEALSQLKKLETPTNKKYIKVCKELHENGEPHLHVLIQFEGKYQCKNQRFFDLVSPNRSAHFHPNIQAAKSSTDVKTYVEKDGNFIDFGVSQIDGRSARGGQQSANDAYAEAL
# Experimental: as §1
# [10] = test system: T10, Rep nickase domain of wheat dwarf virus
# T10 sequence (residues 1-137 of Rep, tag left off): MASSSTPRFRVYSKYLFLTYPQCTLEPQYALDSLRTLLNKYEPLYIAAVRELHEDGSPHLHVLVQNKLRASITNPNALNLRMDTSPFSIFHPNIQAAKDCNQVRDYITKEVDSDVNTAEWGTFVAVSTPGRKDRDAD
# Experimental: as §1
sequence,measurement,setting,value
GTAGCCG,uncleaved DNA left (log2),[1],-0.0976
same,uncleaved DNA left (log2),[2],-0.0867
same,uncleaved DNA left (log2),[3],-0.815
same,uncleaved DNA left (log2),[4],-0.581
same,uncleaved DNA left (log2),[5],-0.0464
same,uncleaved DNA left (log2),[6],-1.03
same,uncleaved DNA left (log2),[7],0.0621
same,uncleaved DNA left (log2),[8],-0.0805
same,uncleaved DNA left (log2),[9],-0.0347
same,uncleaved DNA left (log2),[10],-0.135
GAATCTG,uncleaved DNA left (log2),[1],0.0762
same,uncleaved DNA left (log2),[2],0.0808
same,uncleaved DNA left (log2),[3],0.0952
same,uncleaved DNA left (log2),[4],0.56
same,uncleaved DNA left (log2),[5],0.0506
same,uncleaved DNA left (log2),[6],0.941
same,uncleaved DNA left (log2),[7],0.0525
same,uncleaved DNA left (log2),[8],0.0667
same,uncleaved DNA left (log2),[9],-0.0131
same,uncleaved DNA left (log2),[10],0.0766
TTTCAGT,uncleaved DNA left (log2),[1],0.0751
same,uncleaved DNA left (log2),[2],0.101
same,uncleaved DNA left (log2),[3],0.0675
same,uncleaved DNA left (log2),[4],-0.624
same,uncleaved DNA left (log2),[5],0.0475
same,uncleaved DNA left (log2),[6],-0.724
same,uncleaved DNA left (log2),[7],-0.263
same,uncleaved DNA left (log2),[8],0.0203
same,uncleaved DNA left (log2),[9],0.0424
same,uncleaved DNA left (log2),[10],0.0383
GTTTCCC,uncleaved DNA left (log2),[1],-0.151
same,uncleaved DNA left (log2),[2],-0.0968
same,uncleaved DNA left (log2),[3],0.286
same,uncleaved DNA left (log2),[4],0.715
same,uncleaved DNA left (log2),[5],-0.213
same,uncleaved DNA left (log2),[6],1.58
same,uncleaved DNA left (log2),[7],-1.46
same,uncleaved DNA left (log2),[8],-0.0998
same,uncleaved DNA left (log2),[9],0.00905
same,uncleaved DNA left (log2),[10],-0.018
AACCGTA,uncleaved DNA left (log2),[1],-0.123
same,uncleaved DNA left (log2),[2],-0.152
same,uncleaved DNA left (log2),[3],-0.253
same,uncleaved DNA left (log2),[4],-1.85
same,uncleaved DNA left (log2),[5],-0.0309
same,uncleaved DNA left (log2),[6],-1
same,uncleaved DNA left (log2),[7],-0.336
same,uncleaved DNA left (log2),[8],-0.123
same,uncleaved DNA left (log2),[9],-0.188
same,uncleaved DNA left (log2),[10],-0.139
TTTTTAC,uncleaved DNA left (log2),[1],-1.48
same,uncleaved DNA left (log2),[2],0.0296
same,uncleaved DNA left (log2),[3],0.066
same,uncleaved DNA left (log2),[4],-1.63
same,uncleaved DNA left (log2),[5],0.0613
same,uncleaved DNA left (log2),[6],-0.0883
same,uncleaved DNA left (log2),[7],-0.891
same,uncleaved DNA left (log2),[8],0.013
same,uncleaved DNA left (log2),[9],-0.0422
same,uncleaved DNA left (log2),[10],-0.0217
TAACAAC,uncleaved DNA left (log2),[1],-0.0189
same,uncleaved DNA left (log2),[2],-0.099
same,uncleaved DNA left (log2),[3],-0.783
same,uncleaved DNA left (log2),[4],-2.65
same,uncleaved DNA left (log2),[5],-0.131
same,uncleaved DNA left (log2),[6],-0.574
same,uncleaved DNA left (log2),[7],-0.0539
same,uncleaved DNA left (log2),[8],-0.0787
same,uncleaved DNA left (log2),[9],-0.0289
same,uncleaved DNA left (log2),[10],-0.255
GTTTATG,uncleaved DNA left (log2),[1],0.208
same,uncleaved DNA left (log2),[2],0.129
same,uncleaved DNA left (log2),[3],0.27
same,uncleaved DNA left (log2),[4],0.603
same,uncleaved DNA left (log2),[5],0.191
same,uncleaved DNA left (log2),[6],0.396
same,uncleaved DNA left (log2),[7],0.246
same,uncleaved DNA left (log2),[8],0.217
same,uncleaved DNA left (log2),[9],0.19
same,uncleaved DNA left (log2),[10],0.0967
CTGCCAA,uncleaved DNA left (log2),[1],0.0452
same,uncleaved DNA left (log2),[2],0.109
same,uncleaved DNA left (log2),[3],-0.0152
same,uncleaved DNA left (log2),[4],-0.241
same,uncleaved DNA left (log2),[5],-0.0501
same,uncleaved DNA left (log2),[6],-0.682
same,uncleaved DNA left (log2),[7],-0.139
same,uncleaved DNA left (log2),[8],-0.116
same,uncleaved DNA left (log2),[9],0.034
same,uncleaved DNA left (log2),[10],0.0342
CTATCGT,uncleaved DNA left (log2),[1],-0.178
same,uncleaved DNA left (log2),[2],-0.00867
same,uncleaved DNA left (log2),[3],-0.49
same,uncleaved DNA left (log2),[4],-1.07
same,uncleaved DNA left (log2),[5],-0.113
same,uncleaved DNA left (log2),[6],-1.12
same,uncleaved DNA left (log2),[7],-0.269
same,uncleaved DNA left (log2),[8],-0.0306
same,uncleaved DNA left (log2),[9],-0.0565
same,uncleaved DNA left (log2),[10],-0.0237
ATGGTCA,uncleaved DNA left (log2),[1],0.0996
same,uncleaved DNA left (log2),[2],0.0111
same,uncleaved DNA left (log2),[3],0.0462
same,uncleaved DNA left (log2),[4],-0.505
same,uncleaved DNA left (log2),[5],-0.0702
same,uncleaved DNA left (log2),[6],0.0822
same,uncleaved DNA left (log2),[7],-0.117
same,uncleaved DNA left (log2),[8],0.021
same,uncleaved DNA left (log2),[9],-0.053
same,uncleaved DNA left (log2),[10],-0.0199
CTTAATT,uncleaved DNA left (log2),[1],-0.00194
same,uncleaved DNA left (log2),[2],-0.000169
same,uncleaved DNA left (log2),[3],-0.116
same,uncleaved DNA left (log2),[4],-2.54
same,uncleaved DNA left (log2),[5],-0.206
same,uncleaved DNA left (log2),[6],-0.882
same,uncleaved DNA left (log2),[7],-1.34
same,uncleaved DNA left (log2),[8],-0.0882
same,uncleaved DNA left (log2),[9],0.0292
same,uncleaved DNA left (log2),[10],0.00735
AGATCAG,uncleaved DNA left (log2),[1],-0.0579
same,uncleaved DNA left (log2),[2],-0.0554
same,uncleaved DNA left (log2),[3],-0.583
same,uncleaved DNA left (log2),[4],-0.491
same,uncleaved DNA left (log2),[5],-0.0316
same,uncleaved DNA left (log2),[6],-1.01
same,uncleaved DNA left (log2),[7],0.131
same,uncleaved DNA left (log2),[8],-0.00404
same,uncleaved DNA left (log2),[9],0.0325
same,uncleaved DNA left (log2),[10],0.0254
GGATCGG,uncleaved DNA left (log2),[1],0.042
same,uncleaved DNA left (log2),[2],0.0236
same,uncleaved DNA left (log2),[3],0.567
same,uncleaved DNA left (log2),[4],1.57
same,uncleaved DNA left (log2),[5],-0.0568
same,uncleaved DNA left (log2),[6],2.05
same,uncleaved DNA left (log2),[7],0.0875
same,uncleaved DNA left (log2),[8],0.125
same,uncleaved DNA left (log2),[9],-0.161
same,uncleaved DNA left (log2),[10],0.11
CTGTTAG,uncleaved DNA left (log2),[1],-0.0888
same,uncleaved DNA left (log2),[2],-0.086
same,uncleaved DNA left (log2),[3],-0.941
same,uncleaved DNA left (log2),[4],-0.47
same,uncleaved DNA left (log2),[5],0.000931
same,uncleaved DNA left (log2),[6],-1.18
same,uncleaved DNA left (log2),[7],0.121
same,uncleaved DNA left (log2),[8],-0.0205
same,uncleaved DNA left (log2),[9],0.00794
same,uncleaved DNA left (log2),[10],-0.103
